{"source": "paper PMC4336329", "about": "(PLoS ONE, 2015)", "note": "Among all 310,000 compounds or so, about 14,000 (4.5%) showed an effect of 50% or more. Effects have a minus sign here. The list shows a part of the results.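 Further: peak tail current of the secondary pulse compared with the same well before compound.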", "data": [{"molecular_target": "human ether-à-go-go-related gene (hERG) potassium channel (human, UniProt Q12809)", "sequence (Q12809 whole entry, looked up)": "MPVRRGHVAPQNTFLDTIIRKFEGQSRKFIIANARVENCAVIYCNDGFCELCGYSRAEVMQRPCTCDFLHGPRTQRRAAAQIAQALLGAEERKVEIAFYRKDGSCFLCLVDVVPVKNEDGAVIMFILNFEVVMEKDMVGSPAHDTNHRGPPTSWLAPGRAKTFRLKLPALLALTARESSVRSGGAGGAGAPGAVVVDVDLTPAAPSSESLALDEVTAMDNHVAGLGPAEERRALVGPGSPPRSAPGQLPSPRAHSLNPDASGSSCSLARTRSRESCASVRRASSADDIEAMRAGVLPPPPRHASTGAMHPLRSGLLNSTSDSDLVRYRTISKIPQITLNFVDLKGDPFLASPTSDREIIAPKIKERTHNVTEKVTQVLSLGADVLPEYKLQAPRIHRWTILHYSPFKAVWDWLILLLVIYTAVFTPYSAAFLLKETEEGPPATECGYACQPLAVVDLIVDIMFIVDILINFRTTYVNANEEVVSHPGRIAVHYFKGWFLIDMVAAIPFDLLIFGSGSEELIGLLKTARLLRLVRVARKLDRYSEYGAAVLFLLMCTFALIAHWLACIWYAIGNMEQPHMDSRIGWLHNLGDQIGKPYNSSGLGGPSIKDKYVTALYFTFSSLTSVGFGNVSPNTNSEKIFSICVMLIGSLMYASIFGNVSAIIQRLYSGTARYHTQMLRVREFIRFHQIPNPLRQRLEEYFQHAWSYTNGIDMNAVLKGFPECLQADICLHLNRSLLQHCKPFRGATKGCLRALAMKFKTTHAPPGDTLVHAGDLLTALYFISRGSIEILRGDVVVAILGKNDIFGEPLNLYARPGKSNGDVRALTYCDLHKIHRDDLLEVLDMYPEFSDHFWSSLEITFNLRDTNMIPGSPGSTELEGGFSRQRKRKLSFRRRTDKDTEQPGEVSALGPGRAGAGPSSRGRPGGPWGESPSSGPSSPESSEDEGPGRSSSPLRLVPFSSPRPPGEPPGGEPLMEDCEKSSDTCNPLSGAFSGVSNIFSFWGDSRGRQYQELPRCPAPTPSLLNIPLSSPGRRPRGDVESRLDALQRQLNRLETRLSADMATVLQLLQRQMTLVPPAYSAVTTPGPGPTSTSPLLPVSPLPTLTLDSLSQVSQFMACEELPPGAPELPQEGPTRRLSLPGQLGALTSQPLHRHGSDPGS", "assay": "primary screen, population patch clamp on CHO cells stably expressing hERG", "units": {"hERG current change (%, negative = inhibition) at 10uM": "%"}, "values": [{"smiles": "COc1ccc(C(=O)COC(=O)/C=C/c2ccccc2)cc1", "hERG current change (%, negative = inhibition) at 10uM": 6.99}, {"smiles": "O=C(COC(=O)c1cc(S(=O)(=O)NCc2ccccc2)ccc1O)c1cc2ccccc2o1", "hERG current change (%, negative = inhibition) at 10uM": 11.9}, {"smiles": "CC(C)c1ccc(-n2c(O)c(C=NCCN3CCNCC3)c(=O)[nH]c2=S)cc1", "hERG current change (%, negative = inhibition) at 10uM": 24.1}, {"smiles": "O=C(c1ccc2c(c1)OCO2)N1CCN=C1SCc1ccccc1", "hERG current change (%, negative = inhibition) at 10uM": -29.9}, {"smiles": "O=C(COC(=O)C1CCN(S(=O)(=O)c2cccs2)CC1)NCc1ccccc1", "hERG current change (%, negative = inhibition) at 10uM": -23.6}, {"smiles": "NC(=O)c1nc(-c2ccco2)nc2c1[nH]c(=O)n2-c1ccc(Cl)c(Cl)c1", "hERG current change (%, negative = inhibition) at 10uM": -9.13}, {"smiles": "Cc1cc(C(=O)N/N=C/c2ccc[nH]2)n[nH]1", "hERG current change (%, negative = inhibition) at 10uM": 21.2}, {"smiles": "COc1ccccc1N1CCN(C(=O)Cn2nnc(-c3ccncc3)n2)CC1", "hERG current change (%, negative = inhibition) at 10uM": -11.9}, {"smiles": "Cc1c(N=C2SC(CC(=O)Nc3ccccc3)C(=O)N2CCN2CCOCC2)c(=O)n(-c2ccccc2)n1C", "note": "(stereo not drawn)", "hERG current change (%, negative = inhibition) at 10uM": 6.42}, {"smiles": "COC(=O)C(CC(C)C)Oc1ccc2c(C)cc(=O)oc2c1", "note": "(stereo not drawn)", "hERG current change (%, negative = inhibition) at 10uM": -7.75}, {"smiles": "COc1ccc(NC2CCCN(C(=O)c3ccc4nccnc4c3)C2)cc1OC", "note": "(stereo not drawn)", "hERG current change (%, negative = inhibition) at 10uM": 16.4}, {"smiles": "Cc1ccc(C2(c3noc(CN(C)CC4CCCCO4)n3)CCCC2)cc1", "note": "(stereo not drawn)", "hERG current change (%, negative = inhibition) at 10uM": 5.87}, {"smiles": "Clc1ncc(Cn2cccn2)s1", "hERG current change (%, negative = inhibition) at 10uM": 10.5}, {"smiles": "COc1ccc(S(=O)(=O)N2CC3CCCN3c3cc(C(F)(F)F)ccc32)cc1", "note": "(stereo not drawn)", "hERG current change (%, negative = inhibition) at 10uM": 16.5}, {"smiles": "O=C(O)C(=O)O.O=[N+]([O-])c1ccccc1CNC1CCCCCC1", "hERG current change (%, negative = inhibition) at 10uM": 14}, {"smiles": "O=C(NCCC(=O)N1CCCCCCC1)c1ccc(Br)cc1", "hERG current change (%, negative = inhibition) at 10uM": -12.9}, {"smiles": "COc1ccc(S(=O)(=O)NNC(=O)c2cccs2)cc1", "hERG current change (%, negative = inhibition) at 10uM": 1.37}, {"smiles": "Cl.O=[N+]([O-])c1ccccc1/C=N/NC1=NCCCCC1", "hERG current change (%, negative = inhibition) at 10uM": -39.3}, {"smiles": "O=C(NCC(=O)N(c1ccccc1)C(C(=O)NC1CCCCC1)c1cccnc1)c1cccs1", "note": "(stereo not drawn)", "hERG current change (%, negative = inhibition) at 10uM": 7.14}, {"smiles": "CC(C)Cn1cc(C(=O)NCCCN2CCC(C)CC2)c2c3ccccc3n(C)c2c1=O", "hERG current change (%, negative = inhibition) at 10uM": -43.1}, {"smiles": "CCc1cccc(C)c1NC(=O)CSc1nnc(C)o1", "hERG current change (%, negative = inhibition) at 10uM": -25.4}, {"smiles": "Cc1ccc(S(=O)(=O)Nc2ccc3c(c2)C(=O)NC3=O)cc1[N+](=O)[O-]", "hERG current change (%, negative = inhibition) at 10uM": 19.6}, {"smiles": "Cc1cnc(=O)[nH]c1SCc1ccc([N+](=O)[O-])cc1", "hERG current change (%, negative = inhibition) at 10uM": -70.1}, {"smiles": "CCS(=O)(=O)N1Cc2ccccc2CC1C(=O)Nc1cccc(OC)c1", "note": "(stereo not drawn)", "hERG current change (%, negative = inhibition) at 10uM": 14.3}, {"smiles": "O=C(CSc1nc2ccccc2o1)Nc1ccccc1N1CCOCC1", "hERG current change (%, negative = inhibition) at 10uM": -16.6}, {"smiles": "CC(C)C(=O)Nc1c2c(nn1-c1ccc(F)cc1)CS(=O)(=O)C2", "hERG current change (%, negative = inhibition) at 10uM": 14.7}, {"smiles": "O=C(CCc1nnc2ccc(NCc3ccccc3)nn12)NC1CCCCC1", "hERG current change (%, negative = inhibition) at 10uM": 20.6}, {"smiles": "Cc1cc(Br)ccc1SCC(=O)OCC(=O)Nc1ccc2[nH]c(=O)[nH]c2c1", "hERG current change (%, negative = inhibition) at 10uM": 12.7}, {"smiles": "O=C(CCSCc1ccccc1F)NCCc1ccccc1", "hERG current change (%, negative = inhibition) at 10uM": 2.33}, {"smiles": "Cc1nnc2ccc(Oc3ccc(-c4ccccc4)cc3)nn12", "hERG current change (%, negative = inhibition) at 10uM": -5.63}, {"smiles": "COCCNC(=O)c1ccc2c(c1)ncn2-c1ccc(F)c(F)c1", "hERG current change (%, negative = inhibition) at 10uM": -33.2}, {"smiles": "Cc1cc(Nc2cccc(F)c2)nc(-c2ccccc2O)n1", "hERG current change (%, negative = inhibition) at 10uM": 11.5}, {"smiles": "COc1ccc(Cc2nc3ccc(C(=O)NCCn4ccnc4C)cc3o2)cc1OC", "hERG current change (%, negative = inhibition) at 10uM": -36.5}, {"smiles": "CCN(CC)C(=O)CCS(=O)(=O)c1cccc2nonc12", "hERG current change (%, negative = inhibition) at 10uM": 8.52}, {"smiles": "CC1CCC2(CC1)OCC1(CCC3(COC4(CCC(C)CC4)OC3)C1=O)CO2", "note": "(stereo not drawn)", "hERG current change (%, negative = inhibition) at 10uM": 12.5}, {"smiles": "Cc1ccc(OCC(=O)NCCCNC(=O)c2cnccn2)cc1C", "hERG current change (%, negative = inhibition) at 10uM": 4.76}, {"smiles": "O=C(NC1CCCCC1)C(c1ccc(F)cc1)N(Cc1ccc2c(c1)OCO2)C(=O)c1cnsn1", "note": "(stereo not drawn)", "hERG current change (%, negative = inhibition) at 10uM": -8.38}, {"smiles": "Cc1cc2ncc(S(C)(=O)=O)c(N)n2n1", "hERG current change (%, negative = inhibition) at 10uM": 13.5}, {"smiles": "CN=C(Nc1ccc(Br)cc1)SC1CC(=O)N(c2ccc(OC)cc2)C1=O", "note": "(stereo not drawn)", "hERG current change (%, negative = inhibition) at 10uM": 19.5}, {"smiles": "Cc1cc(C)c2c(=O)n(CC(=O)Nc3cccc(F)c3)sc2n1", "hERG current change (%, negative = inhibition) at 10uM": -16.1}, {"smiles": "CCCOc1ccc(-c2nc[nH]c2[N+](=O)[O-])cc1", "hERG current change (%, negative = inhibition) at 10uM": 27.3}, {"smiles": "NC(=O)CC(O)c1cccc(Cl)c1", "note": "(stereo not drawn)", "hERG current change (%, negative = inhibition) at 10uM": 9.91}, {"smiles": "Cc1ccc(CNC(=O)C2CCC(=O)N2Cc2ccc(C)cc2)cc1", "note": "(stereo not drawn)", "hERG current change (%, negative = inhibition) at 10uM": -7.57}, {"smiles": "Cc1cc(C)cc(NC(=O)COc2coc(CN3CCN(c4ccccc4)CC3)cc2=O)c1", "hERG current change (%, negative = inhibition) at 10uM": -5.82}, {"smiles": "CCN(CC)S(=O)(=O)c1ccc(Cl)c(NC(=O)c2cc(Cl)ccc2Cl)c1", "hERG current change (%, negative = inhibition) at 10uM": 6.24}, {"smiles": "COc1cc(C)c(C(C)C)cc1S(=O)(=O)n1ccnc1", "hERG current change (%, negative = inhibition) at 10uM": 5.54}, {"smiles": "CC(=O)Nc1ccc(NC(=O)CSc2ncc(C(=O)Nc3ccc(Cl)cc3)c(=O)n2C)cc1", "hERG current change (%, negative = inhibition) at 10uM": -0.502}, {"smiles": "OCn1c2ccccc2c2ccccc21", "hERG current change (%, negative = inhibition) at 10uM": 7.26}, {"smiles": "C=CCn1c(C)cc(C(=O)CSc2nnc3c(Cl)cc(Cl)cn23)c1C", "hERG current change (%, negative = inhibition) at 10uM": -21.8}, {"smiles": "CNC(=O)c1ccc(-c2ccc(Cl)c(Cl)c2)s1", "hERG current change (%, negative = inhibition) at 10uM": 11.8}, {"smiles": "CCNc1nc(NCC)n2c(SC(C(=O)Nc3cc(Cl)cc(Cl)c3)c3ccccc3)nnc2n1", "note": "(stereo not drawn)", "hERG current change (%, negative = inhibition) at 10uM": 13.3}, {"smiles": "CCOc1ccccc1NC(=O)CN(Cc1ccccc1)S(C)(=O)=O", "hERG current change (%, negative = inhibition) at 10uM": -31.5}, {"smiles": "COc1ccc(-c2cc(C(=O)Nc3cc(C)on3)c3ccccc3n2)c(OC)c1", "hERG current change (%, negative = inhibition) at 10uM": 4.62}, {"smiles": "Cc1ccc2[nH]c(=O)c(CN(Cc3cccs3)C(=S)NCC3CCCO3)cc2c1", "note": "(stereo not drawn)", "hERG current change (%, negative = inhibition) at 10uM": 8.11}, {"smiles": "Cc1noc(C)c1CCC(=O)O", "hERG current change (%, negative = inhibition) at 10uM": 20.7}, {"smiles": "O=C(NC1CC1)C1=C[C@H](C2CC2)C[C@H](OCCCCO)O1", "hERG current change (%, negative = inhibition) at 10uM": 16.8}, {"smiles": "O=c1cc(CN2CCOCC2)c2cc(Cl)ccc2o1", "hERG current change (%, negative = inhibition) at 10uM": -0.546}]}]}
